This is an account of results in publication PMC4336329 (PLoS ONE, 2015).

About 2,200 (0.71%) of roughly 310,000 compounds showed an effect of 50% or more. Effects have a minus sign here. This is one part of the list.

Chain of human ether-à-go-go-related gene (hERG) potassium channel (Q12809 whole entry, looked up): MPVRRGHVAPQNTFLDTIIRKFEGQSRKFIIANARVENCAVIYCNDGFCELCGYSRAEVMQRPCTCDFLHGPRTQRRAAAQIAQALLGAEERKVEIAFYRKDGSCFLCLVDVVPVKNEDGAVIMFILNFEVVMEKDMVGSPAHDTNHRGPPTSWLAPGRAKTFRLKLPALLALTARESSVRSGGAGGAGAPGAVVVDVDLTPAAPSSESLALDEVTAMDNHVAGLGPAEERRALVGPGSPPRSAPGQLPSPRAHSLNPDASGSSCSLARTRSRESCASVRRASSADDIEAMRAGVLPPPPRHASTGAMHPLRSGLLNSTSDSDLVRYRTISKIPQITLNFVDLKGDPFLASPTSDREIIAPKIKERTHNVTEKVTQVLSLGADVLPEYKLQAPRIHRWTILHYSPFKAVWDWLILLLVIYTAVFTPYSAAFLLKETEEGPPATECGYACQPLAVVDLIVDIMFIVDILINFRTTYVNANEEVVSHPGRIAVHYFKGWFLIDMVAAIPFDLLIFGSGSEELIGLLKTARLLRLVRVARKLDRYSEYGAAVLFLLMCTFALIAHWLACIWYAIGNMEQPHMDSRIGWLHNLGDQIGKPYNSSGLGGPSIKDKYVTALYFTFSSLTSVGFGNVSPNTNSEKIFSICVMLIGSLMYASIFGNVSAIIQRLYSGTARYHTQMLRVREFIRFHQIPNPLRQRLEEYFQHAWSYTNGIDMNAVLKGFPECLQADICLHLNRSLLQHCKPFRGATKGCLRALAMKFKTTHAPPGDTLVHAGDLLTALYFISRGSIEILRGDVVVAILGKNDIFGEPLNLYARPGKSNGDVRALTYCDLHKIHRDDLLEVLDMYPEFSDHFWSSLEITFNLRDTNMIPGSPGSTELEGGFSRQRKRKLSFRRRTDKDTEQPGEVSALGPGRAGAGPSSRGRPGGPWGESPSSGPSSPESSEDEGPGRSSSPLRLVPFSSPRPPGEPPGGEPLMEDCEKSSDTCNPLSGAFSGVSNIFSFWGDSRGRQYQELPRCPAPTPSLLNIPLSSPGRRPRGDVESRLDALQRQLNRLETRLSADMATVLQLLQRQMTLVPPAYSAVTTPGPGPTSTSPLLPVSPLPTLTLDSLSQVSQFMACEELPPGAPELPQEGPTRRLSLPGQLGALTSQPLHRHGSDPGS

The test addresses human ether-à-go-go-related gene (hERG) potassium channel (human, UniProt Q12809). The experiment in a line: primary screen, population patch clamp on CHO cells stably expressing hERG.
With `O=C(Nc1nc(-c2ccc([N+](=O)[O-])cc2)cs1)c1c(F)cccc1F`, the “hERG current change (%, negative = inhibition) at 1uM” value was determined as 10.3%.

Take `O=C(NCC(=O)N1CCN(C(=O)c2ccco2)CC1)c1cccc(Cl)c1`: the “hERG current change (%, negative = inhibition) at 1uM” value is reported as -5.44%.

Take `CCn1ccnc1CNC(=O)C1CCC(=O)N(Cc2ccccc2F)C1` (stereo not shown): the “hERG current change (%, negative = inhibition) at 1uM” value is given as 14.1%.

Regarding `COCCNC(=O)c1ccc(C(=O)C(=O)c2ccccc2)cc1`, the “hERG current change (%, negative = inhibition) at 1uM” value is 9.45%.

For `CC(C)CC(=O)Nc1cccc(-c2nc3ccccc3o2)c1`, the “hERG current change (%, negative = inhibition) at 1uM” value is on record as 2.35%.

For `Fc1ccc(N/N=C/c2ccc(N3CCOCC3)cc2)c(F)c1`, the “hERG current change (%, negative = inhibition) at 1uM” value is 9.29%.

In the case of `Cc1ccccc1S(=O)(=O)Cc1ccc(C(=O)NC2CCCCC2)o1`, the “hERG current change (%, negative = inhibition) at 1uM” value stood at 11.6%.

Take `COc1ccc(CCNC(=O)c2ccc3ccccc3n2)cc1OC`: the “hERG current change (%, negative = inhibition) at 1uM” value is reported as 9.06%.

In the case of `CCC(=O)c1cn(CC(=O)Nc2ccccc2F)c2ccccc12`, the “hERG current change (%, negative = inhibition) at 1uM” value is listed as 20.3%.

Take `CCC1CN(C)C2Cc3c([nH]c4ccccc34)C(=O)CC1C2C(=O)OC` (stereo not shown): the “hERG current change (%, negative = inhibition) at 1uM” value turned out to be 9.84%.

For `CCOC(=O)N1CCN(CC(=O)Nc2ccccc2C(=O)Nc2ccccc2)CC1`, the “hERG current change (%, negative = inhibition) at 1uM” value was 1.36%.

With `CCOCCn1ccc2c(OCC(=O)NCc3ccccc3)cccc2c1=O`, the “hERG current change (%, negative = inhibition) at 1uM” value is listed as -2.94%.

With `O=C(c1ccc(NC2=NC3CS(=O)(=O)CC3S2)cc1)N1CCN(c2ccccc2F)CC1` (stereo not shown), the “hERG current change (%, negative = inhibition) at 1uM” value amounted to 10.5%.

`CCOc1ccccc1N1CCN(S(=O)(=O)c2ccc(Cl)s2)CC1`: the “hERG current change (%, negative = inhibition) at 1uM” value came out at 13.3%.

On to `CC(=O)Nc1ccc(N2C(=O)CSC2c2cccc([N+](=O)[O-])c2)cc1` (stereo not shown), for which the “hERG current change (%, negative = inhibition) at 1uM” value worked out at 13.1%.

Consider `COc1ccccc1C(=O)OCC(=O)NC(C)CCc1ccccc1` (stereo not shown), for which the “hERG current change (%, negative = inhibition) at 1uM” value came out at 9.63%.

With `Cc1cccc(Oc2ncnc3onc(C)c23)c1`, the “hERG current change (%, negative = inhibition) at 1uM” value amounted to 6.6%.

Consider `COCCCNC(=O)CSc1ccc(Cl)cc1`, for which the “hERG current change (%, negative = inhibition) at 1uM” value is given as 2.97%.

Consider `CN1CCN(/N=C/c2ccc(-c3ccc([N+](=O)[O-])cc3)o2)CC1`, for which the “hERG current change (%, negative = inhibition) at 1uM” value was -31.3%.

Take `C=CCOc1c(CNc2nccs2)cccc1OCC`: the “hERG current change (%, negative = inhibition) at 1uM” value came to 9.6%.

On to `Cc1ccc2nc(-c3ccccn3)c(Nc3ccccc3C)n2c1`, for which the “hERG current change (%, negative = inhibition) at 1uM” value is on record as -0.639%.

With `Cc1c(/C(O)=C2/C(=O)C(=O)N(CCN3CCOCC3)C2c2cccnc2)cnn1-c1ccccc1` (stereo not shown), the “hERG current change (%, negative = inhibition) at 1uM” value is listed as 16.9%.

`Cc1ccnc(Nc2nc(-c3ccc(O)cc3)cs2)c1`: the “hERG current change (%, negative = inhibition) at 1uM” value was found to be 14.2%.

As to `CCOC(=O)c1c(-c2cccc(C)c2)csc1NC(=O)C1CC=CCC1C(=O)O` (stereo not shown), the “hERG current change (%, negative = inhibition) at 1uM” value is -2.92%.

For `Cc1ccc(NC(=O)Cc2nnc(SCC(=O)Nc3nncs3)n2C)c(C)c1`, the “hERG current change (%, negative = inhibition) at 1uM” value was determined as 16.2%.
